# PubChem BioAssay AID686979 (National Center for Advancing Translational Sciences (NCATS), 2013)
# “And” between values parts separate entries of the source, which are not always exact repeats. Equal entries are not always repeated. Out of some 420,000 compounds screened, about 50,000 (12%) were called active. The inconclusive results got no clear call from the source; some entries with a clear call stand among them for comparison. Calls follow the shape of the dose curve; as a rule, active = well fitted inhibition curve with a large enough effect; inconclusive = small, poorly fitted or top-dose-only effect; inactive = flat fitted curve, though single readings scatter. Where the call is inconclusive, the potency comes from a doubtful curve fit.
# Assay: qHTS for Inhibitors of human tyrosyl-DNA phosphodiesterase 1 (TDP1): qHTS in cells in presence of CPT; also: nearly all actives have a fitted effect of over 55% in size
# Settings: chicken DT40 Tdp1-/-;hTDP1 cells + 20 nM CPT, ATP luminescence, 48 h; activity change, negative = growth inhibition: at 46.2 µM (top of the series) unless noted
# In short: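 Cell growth measured by CellTiter-Glo luminescence after a minimum 48 h, 37 C compound exposure with 20 nM CPT in Tdp1-knockout DT40 cells stably expressing hTDP1, seeded 400/well; qHTS titration format.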
# % is scaled to controls: 0 for no effect and ±100 for the full control effect; potency is read from the fitted curve at half-maximal effect; tags tell the direction and shape of the fitted curve.
SMILES,Potency,"activity change, negative = growth inhibition"
CCn1c(SCCC(C)C)nnc1-c1c[nH]c2ccccc12,"inconclusive: 29.1 µM [inhibitor, single point]",
CN1CCN(CCc2ccc(Cl)c(Cl)c2)CC1,"inconclusive: 33.5 µM [inhibitor, single point]",
COc1ccc(C2C(Oc3ccccc3C)C(=O)N2Cc2ccc(F)cc2)cc1OC (stereo unspecified),"inconclusive: 25.9 µM [inhibitor, single point]",
CCOc1ccc(NC(=O)CSC(N)=O)cc1,"inconclusive: 23.1 µM [inhibitor, single point]",
COc1ccc(-c2sc3ccccc3c2-c2ccc(OCCN(C)C)cc2)cc1,"inconclusive: 16.4 µM [inhibitor, single point]",
O=C(NCc1ccccc1)c1ccc2c(c1)CCN2S(=O)(=O)c1ccc(Cl)cc1,"inconclusive: 20.6 µM [inhibitor, single point]",
COc1ccc2[nH]c(=O)c(C(c3nnnn3C(C)(C)C)N(Cc3ccco3)CC3CCCO3)cc2c1 (stereo unspecified),inactive,
CCOc1ccc(NC(=O)N2CCN(c3ccc(Cl)c(Cl)c3)CC2)cc1,"inconclusive: 9.2 µM [inhibitor, partial curve, poor fit]",
Cc1ccc2nc3sc(C(=O)N4CCCc5ccccc54)c(N)c3cc2c1,"inconclusive: 29.1 µM [inhibitor, single point]",
COc1ccc2cc3c(N)nn(C(=O)c4ccccc4Cl)c3nc2c1,active: 580 nM and active: 1.64 µM,
COc1ccc(-c2noc(CN(C(=O)C(C)Oc3ccc(C)cc3)C(C)C)n2)cc1 (stereo unspecified),active: 16.4 µM,
COc1ccc(C(=O)C(C)N(C(=O)c2ccc(Cl)cc2Cl)N2C(=O)C3C4C=CC(C4)C3C2=O)cc1 (stereo unspecified),"inconclusive: 20.6 µM [inhibitor, single point]",
CC(=O)O[C@]1(C(C)=O)CC[C@H]2[C@@H]3C=C(Cl)C4=CC(=O)CC[C@]4(C)[C@H]3CC[C@@]21C,"inconclusive: 26.6 µM [inhibitor, single point] and inconclusive: 23.1 µM [inhibitor, single point]",
CCCc1ccc(C(=O)NNC(=O)c2ccc(Br)cc2)cc1,inactive,
O=C(CCNC(=O)OCc1ccccc1)NC1CCCCC1,,inconclusive: -30.6% [inhibitor]
CCOC(=O)N1CCc2c(sc3c2c(=O)n(Cc2ccccc2)c(=O)n3CC(=O)NCCOC)C1,inactive,
COC(=O)c1ccc2nc(-c3ccc(OC)c(OC)c3)c(Cc3ccc(C)cc3)n2c1,"inconclusive: 25.9 µM [inhibitor, single point]",
NC(=O)NC(=O)COC(=O)c1cccnc1Nc1ccccc1F,inactive,
COc1cc(C(=O)Nc2ccc3ccccc3c2)cc(OC)c1OC,"inconclusive: 5.17 µM [inhibitor, single point]",
Cc1nn(-c2ccccc2)c(Cl)c1/C=N/NC(N)=O,inactive,
Cc1ccc(OCC(=O)Nc2ccccc2N2CCOCC2)c(C)c1,active: 18.4 µM,
Cc1ccc(CN2CC(C(=O)Nc3ccc(C)cn3)CC2=O)cc1 (stereo unspecified),"inconclusive: 6.51 µM [inhibitor, single point]",
COC(=O)C[C@@H]1C=C[C@@H](NC(=O)c2cccnc2)[C@@H](CO)O1,inactive,
CCc1ccccc1OCC(=O)NCC1COc2ccccc2O1 (stereo unspecified),"inconclusive: 11.6 µM [inhibitor, partial curve]",

SMILES,Potency,"activity change, negative = growth inhibition"
C[C@@H]1CN([C@@H](C)CO)S(=O)(=O)c2ccc(Br)cc2O[C@H]1CN(C)C(=O)C1CCOCC1,inactive,
CC(=O)Nc1ccc(NC(=O)Nc2ccc(C)c(C)c2)cc1,inactive,
COc1ccc2c(c1)C(C)=CC(C)(C)N2C(=O)C(C)N1C(=O)c2ccccc2C1=O (stereo unspecified),"inconclusive: 32.6 µM [inhibitor, partial curve, poor fit]",
CNC(=O)OCc1snc(-c2ccccc2)c1COC(=O)NC,inactive,
Oc1ccccc1CNCC12CC3CC(CC(C3)C1)C2,"inconclusive: 20.6 µM [inhibitor, single point]",
Cc1ccc(-n2c(C)nc3c(cnn3-c3ccc(C)c(C)c3)c2=O)cc1C,active: 18.4 µM,
O=C(c1ccccc1)c1c2c(cc3sc4ccccc4[n+]13)-c1cccc3cccc-2c13,active: 4.61 µM,
COc1ccc(C2=CSC3=C(C(=O)c4cccc(S(=O)(=O)N(C)C)c4)CCN23)cc1,active: 23.1 µM,
O=C(Nc1ccc(F)cc1)C1C2CCC3C(CCC21)C3(Cl)Cl (stereo unspecified),"inconclusive: 20.6 µM [inhibitor, single point]",
Cc1occc1-c1nnc(SCC(=O)Nc2nc(-c3ccccc3)cs2)o1,inactive,
Cc1ccccc1CNC(=O)CCS(=O)(=O)c1cc2c3c(c1)CCN3C(=O)CC2,inactive,
CN1C(=O)/C(=C\c2ccco2)N=C1c1ccc(Cl)cc1Cl,"inconclusive: 29.1 µM [inhibitor, single point]",
Cc1cc(C)n2c(Br)c(CSc3nc4ccccc4o3)nc2n1,"inconclusive: 16.4 µM [inhibitor, single point]",
Cn1nnc2c(N3CCN(c4ccc(F)cc4)CC3)ncnc21,"inconclusive: 10.3 µM [inhibitor, partial curve]",
COc1ccc(Cl)cc1NC(=O)Cn1ccn(-c2cc(C)cc(C)c2)c(=O)c1=O,"inconclusive: 20.6 µM [inhibitor, single point]",
Cc1noc(C)c1CCC(=O)NC1CCCN(Cc2ccc(CC(C)C)cc2)C1 (stereo unspecified),active: 18.4 µM,
Cc1ccc2c(c1)N(C(=O)CCC(=O)N1CCc3ccccc3C1)CCO2,"inconclusive: 29.1 µM [inhibitor, single point]",
COc1ccc2[nH]c(=O)c(CN(C(=O)c3cccnc3)c3ccc(C)c(C)c3)cc2c1,active: 11.6 µM,
Cc1ccc(N(C(=O)Cn2nnc(-c3ccccc3F)n2)C(C(=O)NC2CCCC2)c2ccncc2)cc1 (stereo unspecified),"inconclusive: 29.1 µM [inhibitor, single point]",
Cc1ccc(Nc2sc(C(=O)c3ccccc3)c(N)c2S(=O)(=O)c2ccccc2)cc1Cl,inactive,
Cc1ccccc1Cn1nnc(-c2ccc(F)cc2)n1,inactive,
CC(C)Cn1cnc2c1c(=O)n(CC(=O)Nc1ccc3c(c1)OCO3)c(=O)n2Cc1ccccc1,inactive,
CCC(=O)N1CCc2cc(Br)cc(S(=O)(=O)N3CCCCCC3)c21,"inconclusive: 18.4 µM [inhibitor, single point]",
O=C(Nc1ccc(Cl)c(Cl)c1)N[C@@H]1CC[C@@H](CCn2cc(C3CCCCC3)nn2)O[C@@H]1CO,"inconclusive: 23.1 µM [inhibitor, single point]",

SMILES,Potency,"activity change, negative = growth inhibition"
COc1cc(C=O)ccc1OCCOCCOc1cc(C)ccc1Cl,"inconclusive: 29.1 µM [inhibitor, single point]",
Cc1ccc2oc(=O)c3cc(C(=O)NCCCN4CCCCCC4)sc3c2c1,"inconclusive: 16.4 µM [inhibitor, single point]",
CCOc1ccc(N(CC(=O)Nc2cccc(Cl)c2)S(=O)(=O)c2c(C)noc2C)cc1,active: 13 µM,
CC(=O)C(=Cc1ccccc1)c1ccccc1,"inconclusive: 32.6 µM [inhibitor, single point]",
Fc1ccc(-n2ncc3c(Nc4ccc5c(c4)OCCO5)ncnc32)cc1,active: 13 µM,
Cc1nc2ccccn2c1C(=O)OCC#N,inactive,
COc1ccccc1N1CCN(C(=O)CCS(=O)(=O)c2ccc3c(c2)oc(=O)n3C)CC1,inactive,
CC1CS(=O)(=O)CCN1N=Cc1ccc([N+](=O)[O-])o1 (stereo unspecified),"inconclusive: 18.4 µM [inhibitor, single point]",
COc1cccc(CN2CCC(n3nccc3NC(=O)CCCc3ccccc3)CC2)c1O,"inconclusive: 29.1 µM [inhibitor, single point]",
CCn1c(SCc2ccc(C#N)cc2)nnc1-c1ccc(S(=O)(=O)N2CCCCC2)cc1,active: 14.6 µM,
CCN1CCN(CCCNC(=O)C2CCN(c3nnc(-n4c(C)ccc4C)s3)CC2)CC1,inactive,
CCOC(=O)C1CCCN(Cc2ccc(OC)cc2OC)C1 (stereo unspecified),inactive,
CCOC(=O)c1c(C)[nH]c(C)c1C(=O)COC(=O)c1cccnc1SC,"inconclusive: 29.1 µM [inhibitor, single point]",
CCOc1ccc(NC(=O)C(C)Sc2nnc(C)n2C)cc1 (stereo unspecified),"inconclusive: 29.1 µM [inhibitor, single point]",
CCc1ccc(CNC(=O)Cn2nc(-c3ccc(C)cc3)ccc2=O)cc1,"inconclusive: 20.6 µM [inhibitor, single point]",
COc1cc(C(=O)NCCc2csc(-c3ccc(Cl)cc3)n2)cc(OC)c1OC,"inconclusive: 25.9 µM [inhibitor, single point]",
COc1ccc(O)c(C2=Nc3ccccc3N=C(c3ccccc3)C2)c1,active: 23.1 µM,
O=c1cc(NCCCO)c2ccccc2o1,inactive,
C=CCSc1n[nH]c(-c2ccc(OCCCC)cc2)n1,"inconclusive: 16.4 µM [inhibitor, single point]",
Cc1ccc(N(CN2CCCC2=O)C(=O)c2ccc(OC(C)C)cc2)cc1,"inconclusive: 18.4 µM [inhibitor, single point]",
COc1ccc(-c2noc(CSc3nnc(C)n3-c3cccc(C)c3)n2)cc1,"inconclusive: 23.1 µM [inhibitor, single point]",
COc1ccc(Cc2n[nH]c(=S)n2NC(=O)Nc2ccc(Cl)c(Cl)c2)cc1,active: 10.3 µM,
O=C(O)c1ccc(N/N=C/c2cn(-c3ccccc3)nc2-c2cccs2)cc1,"inconclusive: 29.1 µM [inhibitor, single point]",
